Source: PubChem BioAssay AID504466 (National Center for Advancing Translational Sciences (NCATS), 2011)
The campaign covered roughly 330,000 compounds. About 4,200 (1.3%) were called active. Inconclusive results, whose numbers are uncertain, are shown with a selection of clear calls. Calls come from the whole dose curve; as a rule, active = well fitted activation curve with a large enough effect; inconclusive = small, poorly fitted or top-dose-only effect; inactive = no such curve, though single readings can be large or run the other way. Where the call is inconclusive, the potency comes from a doubtful curve fit.

Assay: qHTS screen for small molecules that induce genotoxicity in human embryonic kidney (HEK293T) cells expressing luciferase-tagged ELG1; note: nearly all actives have a fitted effect of over 60% in size
Conditions: HEK293T ELG1-luciferase reporter, luminescence, 16 h; series mostly up to 46 µM
In short: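 Quantitative HTS format in 1536-well plates. HEK293T ELG1-luciferase reporter cells receive test compound and are incubated 16 hr at 37 °C, 5% CO2; ONE-Glo added, 30 min room temperature, then luminescence read.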
Potency is the fitted concentration of half-maximal effect; tags give direction and shape of the fitted curve.

SMILES | Potency
Cc1nn(C)cc1C(C)NC(=O)c1cc(COc2c(F)cccc2F)on1 (centres undefined) | inactive
Cn1cnc2cc(NC(=O)c3ccco3)ccc21 | active: 7.31 µM
COc1cccc(C(=O)Nc2sc3c(c2C#N)CCN(C(C)=O)C3)c1 | inconclusive: 16.4 µM [activator, partial curve, poor fit]
N#C/C(=C\c1ccc(-c2ccc(C(=O)O)cc2)o1)C(=O)NCC1CCCO1 (centres undefined) | inactive
O=C(NCc1ccco1)c1cc(-c2ccc3c(c2)OCO3)on1 | inconclusive: 9.2 µM [activator, partial curve]
CC1CCN(c2oc(-c3ccccc3F)nc2C#N)CC1 | active: 16.4 µM
Cc1ccc(-n2ncc3c2ncn2c(C)nnc32)cc1C | inconclusive: 3.66 µM [activator, full curve]
Cc1ccc(N(C(C)C(=O)N2CCC(C)CC2)S(C)(=O)=O)cc1C (centres undefined) | inactive
CCOc1cc2c(C#N)c(N3CCCCC3)nc(N)c2c(N)n1 | inconclusive: 23.1 µM [activator, single point]
C/C(=N\Nc1nc2c(s1)CCCC2)c1ccccc1 | inconclusive: 2.82 µM [activator, partial curve, poor fit]
CCOc1ccc2nc(NS(=O)(=O)Cc3ccccc3)sc2c1 | active: 20.6 µM
O=[N+]([O-])c1nn(-c2ccc3c(c2)OCCO3)n(O)c1=NC1CCCCC1 | inconclusive: 16.4 µM [activator, partial curve, poor fit]
Cc1cccc(OCCCC(=O)NNC(=O)c2cccc(N(C)C)c2)c1 | inconclusive: 20.6 µM [activator, partial curve, poor fit]
C/C(=C\c1ccccc1)C(=O)NCCc1ccccc1 | active: 4.61 µM
COc1ccccc1-c1cc(C(=O)N/N=C/c2cccs2)c2ccccc2n1 | inactive
CC(=O)Nc1ccc(-c2cn3cccnc3n2)cc1 | inconclusive: 23.1 µM [activator, partial curve, poor fit]
CCc1ccc(-c2nc(SCC(=O)NC3CCS(=O)(=O)C3)n[nH]2)cc1 (centres undefined) | inconclusive: 25.9 µM [activator, single point]
Cn1c(-c2ccc(N)cc2)nc2ccccc21 | inconclusive: 13 µM [activator, partial curve, poor fit]
O=C(CN1CCOCC1)N/N=C/c1ccc(C(=O)O)cc1 | inconclusive: 29.1 µM [activator, single point]
CC1CCN(c2nc3ccccc3nc2C(C#N)C(=O)OC2CCCCC2)CC1 (centres undefined) | inactive
OCCNC(=S)c1ccccc1 | inactive
CCOc1c(/C=C(\C#N)C(N)=O)c2ccccc2n1CC | inactive
CC(c1ccco1)N(C(=O)COc1ccc(Cl)cc1)c1ccccn1 (centres undefined) | active: 8.91 µM
Cc1ccc(-n2nc3cc(Cl)c(NC(=O)c4ccco4)cc3n2)cc1 | active: 11.6 µM
Cc1ccc(C(=O)OCc2nc3ccccc3s2)o1 | inconclusive: 25.9 µM [activator, partial curve, poor fit]

SMILES | Potency
O=C(Nc1cccc(F)c1)Nc1ccc2c(c1)OCO2 | inconclusive: 3.26 µM [activator, single point]
CCCCNC(=O)C1CC(c2cccc(F)c2)=NO1 (centres undefined) | inconclusive: 18.3 µM [activator, single point]
Cc1csc(SCC(=O)c2cc(C)n(Cc3cccs3)c2C)n1 | inconclusive: 0.731 µM [activator, partial curve]
NC(=O)C(=O)N/N=C1\CCc2ccccc21 | inconclusive: 20.6 µM [activator, partial curve]
Cc1ccc(Nc2nc3c([nH]2)c(=O)[nH]c(=O)n3C)cc1 | inconclusive: 23.1 µM [activator, single point]
c1ccc2oc(CCc3nc4ccccc4o3)nc2c1 | inconclusive: 11.6 µM [activator, partial curve, poor fit]
c1ccc(C2=NNC(c3ccccn3)=NN2)nc1 | inconclusive: 3.66 µM [activator, full curve]
CC1CCC/C(=N/Nc2ccc([N+](=O)[O-])cc2[N+](=O)[O-])C1 (centres undefined) | inconclusive: 25.9 µM [activator, partial curve, poor fit]
CCOC(=O)c1c(C)[nH]c(C(=O)N2CCc3cc(OC)c(OC)cc3C2)c1C | inactive
CC(C)C(=O)Nc1ccc2c(c1)oc1ccccc12 | active: 4.11 µM
CNc1nnc(CSc2nc3ccccc3s2)s1 | inconclusive: 20.6 µM [activator, single point]
O=C(Nc1cc(-c2ccccc2)[nH]n1)c1ccccc1 | inconclusive: 2.31 µM [activator, partial curve]
CCOC(=O)CCCNC(=O)CCNC(=O)c1ccc(OC(C)C)cc1 | inconclusive: 20.6 µM [activator, partial curve, poor fit]
CCN(CC(=O)NC(=O)Nc1ccccc1F)Cc1ccccc1 | active: 18.3 µM
O=C(c1ccccc1)c1nnc(-c2ccccc2F)o1 | active: 16.4 µM
Cc1ccc(C(=O)Nc2ccc(SC(F)F)cc2)s1 | inconclusive: 2.59 µM [activator, partial curve]
CCN(CC)CCn1c2c(c(SCC(=O)Nc3ccc(C)c(F)c3)nc1=O)CCC2 | inconclusive: 23.1 µM [activator, single point]
O=C(O)c1ccccc1Nc1ccccc1C(=O)O | inactive
Cc1cccc(Nc2nnc(SCC(=O)NC(=O)Nc3ccc4c(c3)OCCO4)s2)c1 | inconclusive: 18.4 µM [activator, single point]
Cc1cc(/C=N/NC(=O)c2ccc(O)cc2)c(C)n1CC(C)C | inconclusive: 23.1 µM [activator, partial curve, poor fit]
COc1ccc(NC(=O)c2cccs2)cc1OC | active: 23.1 µM
Nc1nc2ccccc2n1/N=C/c1ccc(Br)cc1 | active: 16.4 µM
Cc1nc(NCCc2cnc[nH]2)c2oc3ccccc3c2n1 | inactive
COc1cccc(-c2nnc(-c3ccc(C(F)(F)F)cc3)o2)c1OC | inconclusive: 25.9 µM [activator, partial curve, poor fit]
CCCCn1nnc(NC(=O)Cc2ccc(Cl)cc2)n1 | inactive

SMILES | Potency
O=C(Nc1cc(C(F)(F)F)ccc1N1CCOCC1)c1ccc(Cl)nc1 | inactive
O=C(NC(=S)Nc1ccc2c(c1)OCCO2)c1cccc(Br)c1 | inconclusive: 16.4 µM [activator, partial curve]
C(=C\c1ccco1)/c1ccc2ccccc2n1 | inconclusive: 2.31 µM [activator, full curve]
COc1ccccc1Nc1nnc(SCC(=O)NC(=O)Nc2ccc3c(c2)OCCO3)s1 | inconclusive: 8.2 µM [activator, partial curve, poor fit]
COc1ccc(C(=O)Nc2ccccc2C(=O)NCCN2CCOCC2)cc1 | inconclusive: 20.6 µM [activator, partial curve, poor fit]
Clc1ccc(-n2ncc3c(NCc4cccnc4)ncnc32)cc1Cl | inconclusive: 2.31 µM [activator, partial curve]
CCOC(=O)N1CCN(C(=O)CSc2nc3c([nH]c4ccccc43)c(=O)n2C)CC1 | inconclusive: 32.6 µM [activator, partial curve, poor fit]
COc1ccc(NC(=O)CSC2CCCCC2)cc1 | inconclusive: 16.4 µM [activator, partial curve, poor fit]
CCOC(=O)CNC(=O)c1sc(NC(=O)c2cccc(F)c2)nc1C | inconclusive: 29.1 µM [activator, single point]
Cn1c(=O)c([N+](=O)[O-])c(Cl)c2ccccc21 | inconclusive: 18.3 µM [activator, single point]
O=C(NCc1ccccc1)c1ccc(-c2ccccc2F)o1 | active: 13 µM
O=C(c1ccc(-c2ccccc2Cl)o1)N1CCCC(C(F)(F)F)C1 (centres undefined) | inconclusive: 14.6 µM [activator, partial curve, poor fit]
Cn1c(=N)n(CC(=O)C(C)(C)C)c2ccccc21 | inconclusive: 20.6 µM [activator, partial curve, poor fit]
COc1cc2c(cc1OC)[C@@H](NC(=O)COc1ccccc1)[C@H](OCc1ccccc1)C2 | inactive
CCn1ccnc1CN(C)Cc1nc(-c2ccc3c(c2)OCO3)no1 | inconclusive: 11.6 µM [activator, partial curve, poor fit]
c1ccc(-c2cccs2)nc1 | inactive
O=C(COc1ccccc1Cl)Nc1ccccc1C(=O)Nc1cccc(C(=O)O)c1 | inconclusive: 18.3 µM [activator, single point]
O=C(Nc1ccc(Cl)cc1)Nc1ccccc1Sc1ncc([N+](=O)[O-])s1 | inconclusive: 20.6 µM [activator, single point]
CCOC(=O)c1cc(-c2ccccc2)nc2nc(N3CCCCC3)sc12 | inactive
Cc1sc(NC(=O)c2ccco2)c(C(c2cccnc2)N2CCN(c3ccc(F)cc3)CC2)c1C (centres undefined) | active: 0.517 µM
CCN(c1ccc(NC(=O)c2ccc(N3CCCC3=O)cc2)cc1)C(C)C | active: 6.51 µM
O=C(Cc1c(F)cccc1Cl)Nc1cc(S(=O)(=O)N2CCCCC2)ccc1N1CCOCC1 | inactive
CCOC(=O)c1c(NC(=O)COC(=O)CCOc2ccccc2C)sc(C(=O)NC)c1C | inconclusive: 0.92 µM [activator, full curve, poor fit]
Cc1nn(C)c(C)c1/C=C/C(=O)c1ccccc1 | active: 16.4 µM
